Some of the results follow.
Legend:
Test in all cases: glycan array binding signal (z-score within array); higher = stronger binding
Settings in all cases: glycan notation: IUPAC condensed, linker removed
[1] = molecular target: Neu5Ac(a2-3)[Neu5Ac(a2-6)]GalNAc
Method in brief: (§1)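 Arrays were curated from the Consortium for Functional Glycomics database, 3228 in total, and kept only where the protein sequence was available. Binding is expressed as a within-array Z-score. This score was averaged across arrays of the same protein sequence at different concentrations or buffers and across linkers, and negative values can be read as non-binding.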

[2] = molecular target: Neu5Ac(a2-6)Gal
Method in brief: as §1

[3] = molecular target: Neu5Ac(a2-6)Gal(b1-4)Glc
Method in brief: as §1

[4] = molecular target: Neu5Ac(a2-6)Gal(b1-4)GlcNAc
Method in brief: as §1

[5] = molecular target: Neu5Ac(a2-6)Gal(b1-4)GlcNAc(b1-2)Man(a1-3)Man(b1-4)GlcNAc(b1-4)GlcNAc
Method in brief: as §1

[6] = molecular target: Neu5Ac(a2-6)Gal(b1-4)GlcNAc(b1-2)Man(a1-3)[Gal(b1-4)GlcNAc(b1-2)Man(a1-6)]Man(b1-4)GlcNAc(b1-4)GlcNAc
Method in brief: as §1

[7] = molecular target: Neu5Ac(a2-6)Gal(b1-4)GlcNAc(b1-2)Man(a1-3)[GlcNAc(b1-2)Man(a1-6)]Man(b1-4)GlcNAc(b1-4)GlcNAc
Method in brief: as §1

[8] = molecular target: Neu5Ac(a2-6)Gal(b1-4)GlcNAc(b1-2)Man(a1-3)[GlcNAc(b1-2)Man(b1-4)GlcNAc(b1-2)Man(a1-6)]Man(b1-4)GlcNAc(b1-4)GlcNAc
Method in brief: as §1

[9] = molecular target: Neu5Ac(a2-6)Gal(b1-4)GlcNAc(b1-2)Man(a1-3)[Man(a1-6)]Man(b1-4)GlcNAc(b1-4)GlcNAc
Method in brief: as §1

[10] = molecular target: Neu5Ac(a2-6)Gal(b1-4)GlcNAc(b1-2)Man(a1-3)[Neu5Ac(a2-6)Gal(b1-4)GlcNAc(b1-2)Man(a1-6)]Man(b1-4)GlcNAc(b1-4)GlcNAc
Method in brief: as §1

[11] = molecular target: Neu5Ac(a2-6)Gal(b1-4)GlcNAc(b1-2)Man(a1-6)Man(b1-4)GlcNAc(b1-4)GlcNAc
Method in brief: as §1

[12] = molecular target: Neu5Ac(a2-6)Gal(b1-4)GlcNAc(b1-2)Man(a1-6)[Gal(b1-4)GlcNAc(b1-2)Man(a1-3)]Man(b1-4)GlcNAc(b1-4)GlcNAc
Method in brief: as §1

[13] = molecular target: Neu5Ac(a2-6)Gal(b1-4)GlcNAc(b1-2)Man(a1-6)[GlcNAc(b1-2)Man(a1-3)]Man(b1-4)GlcNAc(b1-4)GlcNAc
Method in brief: as §1

[14] = molecular target: Neu5Ac(a2-6)Gal(b1-4)GlcNAc(b1-2)Man(a1-6)[Man(a1-3)]Man(b1-4)GlcNAc(b1-4)GlcNAc
Method in brief: as §1

[15] = molecular target: Neu5Ac(a2-6)Gal(b1-4)GlcNAc(b1-3)Gal(b1-3)GlcNAc
Method in brief: as §1

[16] = molecular target: Neu5Ac(a2-6)Gal(b1-4)GlcNAc(b1-3)Gal(b1-4)GlcNAc
Method in brief: as §1

[17] = molecular target: Neu5Ac(a2-6)Gal(b1-4)GlcNAc(b1-3)Gal(b1-4)GlcNAc(b1-3)Gal(b1-4)GlcNAc
Method in brief: as §1

[18] = molecular target: Neu5Ac(a2-6)Gal(b1-4)GlcNAc(b1-3)Gal(b1-4)[Fuc(a1-3)]GlcNAc(b1-3)Gal(b1-4)[Fuc(a1-3)]GlcNAc
Method in brief: as §1

[19] = molecular target: Neu5Ac(a2-6)Gal(b1-4)GlcNAc(b1-3)GalNAc
Method in brief: as §1

[20] = molecular target: Neu5Ac(a2-6)Gal(b1-4)GlcNAc6S
Method in brief: as §1

[21] = molecular target: Neu5Ac(a2-6)GalNAc
Method in brief: as §1

[22] = molecular target: Neu5Ac(a2-6)GalNAc(b1-4)GlcNAc
Method in brief: as §1

[23] = molecular target: Neu5Ac(a2-6)GlcNAc(b1-4)GlcNAc
Method in brief: as §1

[24] = molecular target: Neu5Ac(a2-6)GlcNAc(b1-4)GlcNAc(b1-4)GlcNAc
Method in brief: as §1

[25] = molecular target: Neu5Ac(a2-8)Neu5Ac
Method in brief: as §1

[26] = molecular target: Neu5Ac(a2-8)Neu5Ac(a2-3)Gal(b1-4)Glc
Method in brief: as §1

[27] = molecular target: Neu5Ac(a2-8)Neu5Ac(a2-3)[GalNAc(b1-4)]Gal(b1-4)Glc
Method in brief: as §1

[28] = molecular target: Neu5Ac(a2-8)Neu5Ac(a2-8)Neu5Ac
Method in brief: as §1

[29] = molecular target: Neu5Ac(a2-8)Neu5Ac(a2-8)Neu5Ac(a2-3)Gal(b1-4)Glc
Method in brief: as §1

[30] = molecular target: Neu5Ac(a2-8)Neu5Ac(a2-8)Neu5Ac(a2-3)[GalNAc(b1-4)]Gal(b1-4)Glc
Method in brief: as §1

[31] = molecular target: Neu5Ac(a2-8)Neu5Ac(a2-8)Neu5Ac(a2-8)Neu5Ac(a2-3)[GalNAc(b1-4)]Gal(b1-4)Glc
Method in brief: as §1

[32] = molecular target: Neu5Ac(b2-6)Gal(b1-4)GlcNAc
Method in brief: as §1

[33] = molecular target: Neu5Ac(b2-6)GalNAc
Method in brief: as §1

[34] = molecular target: Neu5Ac9Ac(a2-3)Gal(b1-3)GlcNAc
Method in brief: as §1

[35] = molecular target: Neu5Ac9Ac(a2-3)Gal(b1-4)GlcNAc
Method in brief: as §1

[36] = molecular target: Neu5Ac9Ac(a2-6)Gal(b1-4)GlcNAc
Method in brief: as §1

[37] = molecular target: Neu5Gc(a2-3)Gal(b1-3)GlcNAc
Method in brief: as §1

[38] = molecular target: Neu5Gc(a2-3)Gal(b1-3)[Fuc(a1-4)]GlcNAc
Method in brief: as §1

[39] = molecular target: Neu5Gc(a2-3)Gal(b1-4)Glc
Method in brief: as §1

[40] = molecular target: Neu5Gc(a2-3)Gal(b1-4)GlcNAc
Method in brief: as §1

[41] = molecular target: Neu5Gc(a2-3)Gal(b1-4)[Fuc(a1-3)]GlcNAc
Method in brief: as §1

[42] = molecular target: Neu5Gc(a2-6)Gal(b1-4)GlcNAc
Method in brief: as §1

[43] = molecular target: Neu5Gc(a2-6)GalNAc
Method in brief: as §1

[44] = molecular target: Neu5Gc(b2-6)Gal(b1-4)GlcNAc
Method in brief: as §1

B1: CCL2 (Coprinopsis cinerea), B3GA02 (protein)
chain: MDSPAVTLSAGNYIIYNRVLSPRGEKLALTYPGRQRTPVTVSPLDGSSEQAWILRSYDSNSNTWTISPVGSPNSQIGWGAGNVPVVLPPNNYVWTLTLTSGGYNIQDGKRTVSWSLNNATAGEEVSIGADATFSGRWVIEKV
glycan array binding signal (z-score) [1]: -0.263 | glycan array binding signal (z-score) [2]: -0.289 | glycan array binding signal (z-score) [3]: -0.29 | glycan array binding signal (z-score) [4]: -0.284 | glycan array binding signal (z-score) [5]: -0.274 | glycan array binding signal (z-score) [6]: -0.276 | glycan array binding signal (z-score) [7]: -0.279 | glycan array binding signal (z-score) [8]: -0.266 | glycan array binding signal (z-score) [9]: -0.288 | glycan array binding signal (z-score) [10]: -0.248 | glycan array binding signal (z-score) [11]: -0.293 | glycan array binding signal (z-score) [12]: -0.278 | glycan array binding signal (z-score) [13]: -0.277 | glycan array binding signal (z-score) [14]: -0.294 | glycan array binding signal (z-score) [15]: -0.283 | glycan array binding signal (z-score) [16]: -0.294 | glycan array binding signal (z-score) [17]: -0.262 | glycan array binding signal (z-score) [18]: 1.94 | glycan array binding signal (z-score) [19]: 0.358 | glycan array binding signal (z-score) [20]: -0.205 | glycan array binding signal (z-score) [21]: -0.277 | glycan array binding signal (z-score) [22]: -0.277 | glycan array binding signal (z-score) [23]: -0.288 | glycan array binding signal (z-score) [24]: -0.293 | glycan array binding signal (z-score) [25]: -0.286 | glycan array binding signal (z-score) [26]: -0.275 | glycan array binding signal (z-score) [27]: -0.27 | glycan array binding signal (z-score) [28]: -0.276 | glycan array binding signal (z-score) [29]: -0.278 | glycan array binding signal (z-score) [30]: -0.252 | glycan array binding signal (z-score) [31]: -0.286 | glycan array binding signal (z-score) [32]: -0.233 | glycan array binding signal (z-score) [33]: -0.288 | glycan array binding signal (z-score) [34]: -0.294 | glycan array binding signal (z-score) [35]: -0.296 | glycan array binding signal (z-score) [36]: -0.274 | glycan array binding signal (z-score) [37]: -0.282 | glycan array binding signal (z-score) [38]: -0.279 | glycan array binding signal (z-score) [39]: -0.285 | glycan array binding signal (z-score) [40]: -0.298 | glycan array binding signal (z-score) [41]: 2.72 | glycan array binding signal (z-score) [42]: -0.279 | glycan array binding signal (z-score) [43]: -0.282 | glycan array binding signal (z-score) [44]: -0.282

Source: the supplement of paper PMC8728848
